The target of one series is trypsin (Homo sapiens, UniProt P07477). Put plainly: biochemical.
The next series concerns the target T1, Cathepsin K (Homo sapiens, UniProt P43235).
T1 sequence (P43235 115-329): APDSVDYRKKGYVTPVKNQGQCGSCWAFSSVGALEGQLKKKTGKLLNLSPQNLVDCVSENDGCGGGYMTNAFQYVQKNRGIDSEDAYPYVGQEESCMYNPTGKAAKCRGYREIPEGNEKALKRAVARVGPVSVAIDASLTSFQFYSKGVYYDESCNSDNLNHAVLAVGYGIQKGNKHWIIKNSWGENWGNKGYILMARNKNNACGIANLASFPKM
Put plainly: Cathepsin K enzymatic assay. The format is biochemical.

Another series concerns the target Cathepsin B (Homo sapiens, UniProt P07858). The series is described as follows: Cathepsin B enzymatic assay. The format is biochemical.
The next series has as its target Cathepsin L (Homo sapiens, UniProt P07711). The series is described as follows: Cathepsin L enzymatic assay. The format is biochemical.
In the next series the target is DPP-4 (Homo sapiens, UniProt P27487). Put plainly: biochemical. In kind it is biochemical.
A further series addresses T2, Thrombin (Homo sapiens, UniProt P00734).
T2 construct: the activity of Thrombin was monitored using the substrate Benzoyl-FVR-AMC
The series is described as follows: Thrombin enzymatic assay. In kind it is biochemical.

In a further series the target is T3, Calpain I (Homo sapiens, UniProt P07384).
T3 construct: purchased abcam ab91019
T3 sequence (P07384 1-714): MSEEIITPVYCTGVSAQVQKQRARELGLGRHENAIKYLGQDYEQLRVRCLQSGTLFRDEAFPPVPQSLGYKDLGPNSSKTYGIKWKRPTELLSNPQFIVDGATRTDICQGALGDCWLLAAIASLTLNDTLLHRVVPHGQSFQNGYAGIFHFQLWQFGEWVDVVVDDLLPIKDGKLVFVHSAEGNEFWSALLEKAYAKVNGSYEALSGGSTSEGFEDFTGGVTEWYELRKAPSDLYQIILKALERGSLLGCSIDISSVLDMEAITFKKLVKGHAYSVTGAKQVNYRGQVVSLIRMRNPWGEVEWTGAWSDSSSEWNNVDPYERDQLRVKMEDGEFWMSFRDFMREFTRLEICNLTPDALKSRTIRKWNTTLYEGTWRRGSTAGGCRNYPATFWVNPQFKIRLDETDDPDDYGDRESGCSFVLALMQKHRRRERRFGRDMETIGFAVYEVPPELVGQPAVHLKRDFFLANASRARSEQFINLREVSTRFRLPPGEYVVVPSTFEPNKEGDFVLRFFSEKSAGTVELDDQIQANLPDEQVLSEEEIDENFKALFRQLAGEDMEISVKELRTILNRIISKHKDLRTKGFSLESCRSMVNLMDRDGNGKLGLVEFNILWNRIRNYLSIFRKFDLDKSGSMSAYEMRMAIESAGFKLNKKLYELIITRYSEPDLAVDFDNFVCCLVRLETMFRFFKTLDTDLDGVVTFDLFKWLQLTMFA
T3 sequence (P04632 1-268 partner): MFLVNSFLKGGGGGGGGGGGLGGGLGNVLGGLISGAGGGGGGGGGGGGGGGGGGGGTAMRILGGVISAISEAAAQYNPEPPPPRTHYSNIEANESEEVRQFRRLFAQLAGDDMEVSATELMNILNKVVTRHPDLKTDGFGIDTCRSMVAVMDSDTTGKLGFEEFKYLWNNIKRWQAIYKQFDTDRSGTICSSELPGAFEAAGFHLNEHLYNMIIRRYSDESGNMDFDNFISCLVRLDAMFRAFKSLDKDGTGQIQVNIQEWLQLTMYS
Put plainly: Calpain I enzymatic assay. The format is biochemical.

For the next series, the target named is Cathepsin D (Homo sapiens, UniProt P07339). The series is described as follows: Cathepsin D enzymatic assay. The format is biochemical.
The target in a further series is T4, caspase-3 (Homo sapiens, UniProt P42574).
T4 sequence (P42574 29-277): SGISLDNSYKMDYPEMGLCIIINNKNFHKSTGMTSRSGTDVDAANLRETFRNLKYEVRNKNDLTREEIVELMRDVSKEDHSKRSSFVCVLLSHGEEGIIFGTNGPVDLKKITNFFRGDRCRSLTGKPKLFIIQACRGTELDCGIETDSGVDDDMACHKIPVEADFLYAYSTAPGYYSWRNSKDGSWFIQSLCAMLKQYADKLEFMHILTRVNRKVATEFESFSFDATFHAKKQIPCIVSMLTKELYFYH
The series is described as follows: Caspase-3 activity assay. In kind it is biochemical.

For the next series, the system named is Vero E6 cells. To be noted: African green monkey.
The target of the next series is SARS-CoV-2 PL^pro (Severe acute respiratory syndrome coronavirus 2, UniProt P0DTC1). The series is described as follows: biochemical. To be noted: text and positive control footnote; read-out: IC50 SARS-CoV-2 PLpro.
Series [1] has as its target T5, SARS-CoV-2 3CL^pro (Severe acute respiratory syndrome coronavirus 2, UniProt P0DTC1). Put plainly: biochemical. To be noted: IC50, time-dependent inhibition.
The target of the next series is SARS-CoV-2 RdRp (Severe acute respiratory syndrome coronavirus 2, UniProt P0DTD1). Put plainly: biochemical.
Another series in a line: in vivo. To be noted: mouse.
In the next series the test system is HCoV-OC43. Put plainly: In vitro antiviral activity against HCoV-OC43. In kind it is cell-based. To be noted: in words.
In series [2] the target is T5, SARS-CoV-2 3CL^pro. The series is described as follows: Bio-layer interferometry (BLI) binding.
The target in series [3] is T5, SARS-CoV-2 3CL^pro. The series is described as follows: Enzyme kinetic studies (Lineweaver-Burk, global fit). In kind it is biochemical.
The target in the next series is human proteasome (Homo sapiens, UniProt P20618+P28074). Put plainly: Proteasome activity assay.
The test system of series [4] is SARS-CoV-2 original strain. The series is described as follows: Cell-based antiviral activity assay, original strain, Vero E6. To be noted: Severe acute respiratory syndrome coronavirus 2, Vero C1008; Vero E6 cells, viral RNA by qRT-PCR 24 h post infection, n = 3; read-out: EC50 SARS-CoV-2 WT (original strain) replication. In general terms: In qPCR the cycle at which signal appears reflects the starting amount.

The target in a further series is SARS-CoV-1 3CL^pro (Severe acute respiratory syndrome coronavirus, UniProt P0C6U8). Put plainly: biochemical.
Where [5] appears, read: read-out: IC50 Calpain 1/cysteine.
Setting [6] is: read-out: IC50 Cathepsin D/aspartyl.
The mark [7] stands for this setting: read-out: IC50 Caspase3/ cysteine.

Structures can show the parent of a compound that is named as a salt. Where two headings read alike, the source gives them in different places.

Chain of UniProt P27487 (P27487 whole entry): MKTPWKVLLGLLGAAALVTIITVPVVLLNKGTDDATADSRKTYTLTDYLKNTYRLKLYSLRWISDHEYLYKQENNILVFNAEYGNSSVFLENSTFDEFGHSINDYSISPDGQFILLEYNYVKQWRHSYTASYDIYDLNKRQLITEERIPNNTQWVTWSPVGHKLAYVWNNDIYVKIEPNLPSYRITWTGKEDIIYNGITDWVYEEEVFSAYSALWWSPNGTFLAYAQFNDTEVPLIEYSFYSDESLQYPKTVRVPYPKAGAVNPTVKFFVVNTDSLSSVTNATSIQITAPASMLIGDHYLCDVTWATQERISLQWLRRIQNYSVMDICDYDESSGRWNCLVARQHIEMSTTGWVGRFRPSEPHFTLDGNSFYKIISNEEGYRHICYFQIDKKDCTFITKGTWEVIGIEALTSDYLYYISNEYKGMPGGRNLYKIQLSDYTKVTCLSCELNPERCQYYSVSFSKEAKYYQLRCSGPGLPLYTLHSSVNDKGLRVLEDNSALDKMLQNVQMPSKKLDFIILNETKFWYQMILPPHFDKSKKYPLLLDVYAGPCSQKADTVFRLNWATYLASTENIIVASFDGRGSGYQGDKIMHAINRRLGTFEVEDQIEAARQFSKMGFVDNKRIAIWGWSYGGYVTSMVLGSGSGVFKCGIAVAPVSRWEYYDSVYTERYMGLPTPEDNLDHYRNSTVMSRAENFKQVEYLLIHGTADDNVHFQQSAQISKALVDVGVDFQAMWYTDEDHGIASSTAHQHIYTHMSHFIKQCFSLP

Consider `CN(C)C(=O)COC(=O)Cc1ccc(OC(=O)c2ccc(NC(=N)N)cc2)cc1` [Camostat mesylate, reference compound], for which the IC50 on trypsin worked out at 101 ± 26.4 nM.
With `CC(C)C[C@H](NC(=O)[C@H]1O[C@@H]1C(=O)O)C(=O)NCCCCN=C(N)N` [Compound E-64], the IC50 at Cathepsin K (positive control, read-out: IC50 Cathepsin K) worked out at 13.6 ± 5 nM; at Cathepsin B (positive control, read-out: IC50 Cathepsin B), 13.4 ± 1.4 nM; at Cathepsin L (positive control, read-out: IC50 Cathepsin L) it was 65 ± 8.9 nM.
As for `CC(C)C[C@H](NC(=O)OCc1ccccc1)C(=O)N[C@@H](CC1CCNC1=O)C(O)S(=O)(=O)O` (some centres unmarked) [GC-376], the IC50 at DPP-4 (read-out: IC50 DPP-4/cysteine) is more than 100000 nM; on Cathepsin B (read-out: IC50 Cathepsin B/cysteine), 90 nM; on Thrombin (read-out: IC50 Thrombin/serine), more than 100000 nM; at Calpain I (setting [5]), 20 nM; on Cathepsin L (read-out: IC50 Cathepsin L/cysteine) it was 2 nM; at Cathepsin D (setting [6]), more than 100000 nM. Further, the IC50 on caspase-3 (setting [7]) is more than 100000 nM.
Molecule `O=C(c1cc(=O)[nH]c2ccccc12)N1CCN(c2ccc(Cl)c(Cl)c2)CC1CN1CCOCC1` (centres unmarked) [JZD-07, 4-(4-(3,4-Dichlorophenyl)-2-(morpholinomethyl)piperazine-1-carbonyl)quinolin-2(1H)-one] came in with a CC50 with Vero E6 cells of more than 300000 nM. Further, the IC50 was more than 100000 nM at SARS-CoV-2 PL^pro; more than 100000 nM against Cathepsin K; 120 ± 10 nM at SARS-CoV-2 3CL^pro [1]; more than 100000 nM at DPP-4; more than 100000 nM on SARS-CoV-2 RdRp (text: viral life cycle related targets, read-out: IC50 SARS-CoV-2 RdRp); more than 100000 nM against Cathepsin B. In addition, the IC50 at Thrombin was more than 100000 nM; against Calpain I, more than 100000 nM; against human proteasome it was more than 100000 nM; against Cathepsin L, more than 100000 nM; on SARS-CoV-1 3CL^pro it was 110 nM; against Cathepsin D, more than 100000 nM. Moreover, the IC50 at trypsin and against caspase-3 was more than 100000 nM in each case. For the same molecule, in “in vivo” (ip, 10 mg/kg), the AUC(0-inf) was 2280 ng·h/mL. Besides, in the series “in vivo” (ip, 10 mg/kg), the peak level (Cmax) was 1610 ng/mL. The molecule also returned a bioavailability in “in vivo” (po, 20 mg/kg) of 28.1%. In the series on HCoV-OC43, the “antivirus activity against HCoV-OC43” value is reported as “good antivirus activities”. The molecule also gave a koff at SARS-CoV-2 3CL^pro [2] of 0.028 S^-1. For the same molecule, on SARS-CoV-2 3CL^pro [2], the kon is 2.36 × 10^5 M^-1S^-1. Besides, the affinity at SARS-CoV-2 3CL^pro [3] corresponds to a Ki of 117 nM. Moreover, the mode of inhibition entry at SARS-CoV-2 3CL^pro [3] (Lineweaver-Burk plot) is reported as “competitive inhibitor”. Also, in series [4], the half-maximal effective concentration (EC50) turned out to be 820 nM.
For `CC(C)(C)[C@H](NC(=O)C(F)(F)F)C(=O)N1C[C@H]2[C@@H]([C@H]1C(=O)N[C@H](C#N)C[C@@H]1CCNC1=O)C2(C)C` [PF-07321332], the IC50 on DPP-4 (read-out: IC50 DPP-4/cysteine), at Thrombin (read-out: IC50 Thrombin/serine), on Calpain I (setting [5]), on Cathepsin D (setting [6]) and at caspase-3 (setting [7]) was more than 100000 nM throughout.
In turn, `Cc1ccc(C(=O)Nc2ccc(S(=O)(=O)O)c3cc(S(=O)(=O)O)cc(S(=O)(=O)O)c23)cc1NC(=O)c1cccc(NC(=O)Nc2cccc(C(=O)Nc3cc(C(=O)Nc4ccc(S(=O)(=O)O)c5cc(S(=O)(=O)O)cc(S(=O)(=O)O)c45)ccc3C)c2)c1` [suramin, reference compound] came in with an IC50 against SARS-CoV-2 RdRp of 364.5 ± 3 nM.

For orientation: CC50 means the concentration that lowers cell viability or growth by half. As usually defined, the AUC(0-inf) is total exposure, with the tail of the curve extrapolated. The Cmax is the peak of the concentration-time curve. A word on the bioavailability: it is dose-corrected exposure relative to a reference, in per cent. Usually Ki stands for a measure of affinity in units of concentration, obtained from inhibition or displacement. For orientation: EC50 means the concentration giving half of the maximal effect.

For the origin of these results see PMC10201506 (Signal Transduction and Targeted Therapy, 2023).
